# Assay results published in US20090162366A1.
# Legend:
# [1] = target: M2-BSA conjugate (influenza A virus, A/Hong Kong/1/68 (H3N2)); assay: peptide-BSA ELISA (++ EC50<10^-9M; + 10^-9M<EC50<10^-8M)
# [2] = target: M2 peptide (influenza A virus, A/Hong Kong/1/68 (H3N2)); assay: ELISA on peptide, Ab 10 µg/ml
binder,measurement,setting,value
"N547 (antibody, V domains shown) VH: [letters of about 100 residues left out]HLRYFDWLSDYWGQGTLVTVSS VL: QSVLTQPPSMSAAPGQKVTISCSGSSSNIGNNYISWYQQLPGTAPKVLIYDNNKRPSGIPDRFSGSKSGTSATLGITGLQTGDEADYYCGSWDSSLSAGVFGTGTKVTVLG",EC50,[1],< 1 nM
same,ELISA(OD450),[2],0.51 OD450
